The other results are listed elsewhere or left out. Many values rest on one well or one pass, so single values are uncertain.
Legend:
Test in all cases: cell count relative to DMSO control; melanoma cells; higher = more viable cells
Conditions in all cases: library dose: low library concentration; 72 h
MZ2-MEL = system: MZ2-MEL
MeWo = system: MeWo
RPMI7951 = system: RPMI7951
RVH-421 = system: RVH-421
SkMel28 = system: SkMel28
SkMel2 = system: SkMel2
SkMel30 = system: SkMel30
UACC62 = system: UACC62
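Also: cell number obtained by counting DAPI-stained nuclei in high-throughput microscope images with image analysis software, screen run in 1,536-well plates.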

Structure (SMILES) | cell count (MZ2-MEL) [%] | cell count (MeWo) [%] | cell count (RPMI7951) [%] | cell count (RVH-421) [%] | cell count (SkMel28) [%] | cell count (SkMel2) [%] | cell count (SkMel30) [%] | cell count (UACC62) [%]
COc1ccc(C2=N[C@@H](c3ccc(Cl)cc3)[C@@H](c3ccc(Cl)cc3)N2C(=O)N2CCNC(=O)C2)c(OC(C)C)c1 [Nutlin-3] + Nc1cccc2c1CN(C1CCC(=O)NC1=O)C2=O [lenalidomide] (first compound 0.1 µM, partner dose 1 µM) | 99.3 | 99.8 | 101 | 71.4 | 91.6 | 98.7 | 108 | 79
Cn1c(=O)n(-c2ccc(C(C)(C)C#N)cc2)c2c3cc(-c4cnc5ccccc5c4)ccc3ncc21 + CCCS(=O)(=O)Nc1ccc(F)c(C(=O)c2c[nH]c3ncc(Cl)cc23)c1F [PLX4720] (first compound 0.004 µM, partner dose 0.08 µM) | 87.7 | 75.5 | 100 | 88.5 | 96.9 | 92.2 | 91.2 | 71
Cn1c(=O)n(-c2ccc(C(C)(C)C#N)cc2)c2c3cc(-c4cnc5ccccc5c4)ccc3ncc21 + Cc1nc(Nc2ncc(C(=O)Nc3c(C)cccc3Cl)s2)cc(N2CCN(CCO)CC2)n1 [dasatanib] (first compound 0.004 µM, partner dose 0.004 µM) | 78.9 | 86.2 | 64.7 | 93.7 | 76.8 | 85.8 | 73.1 | 87.3
COc1ccc(C2=N[C@@H](c3ccc(Cl)cc3)[C@@H](c3ccc(Cl)cc3)N2C(=O)N2CCNC(=O)C2)c(OC(C)C)c1 [Nutlin-3] + COc1ccc(Cl)c(Nc2nc3ccccc3nc2NS(=O)(=O)c2cccc(NC(=O)C(C)(C)N)c2)c1 [XL147] (first compound 0.1 µM, partner dose 0.8 µM) | 99.2 | 97.3 | 106 | 83.1 | 93.2 | 106 | 92.6 | 84.9
Cc1cn(-c2cc(NC(=O)c3ccc(C)c(Nc4nccc(-c5cccnc5)n4)c3)cc(C(F)(F)F)c2)cn1 [nilotinib] + C[C@]1(O)C[C@@H](c2nc(-c3ccc4ccc(-c5ccccc5)nc4c3)c3c(N)nccn32)C1 [OSI906] (first compound 0.2 µM, partner dose 0.4 µM) | 85.4 | 90.4 | 86.9 | 103 | 81.4 | 83.5 | 70.6 | 84
Cn1c(=O)n(-c2ccc(C(C)(C)C#N)cc2)c2c3cc(-c4cnc5ccccc5c4)ccc3ncc21 + C#Cc1cccc(Nc2ncnc3cc(OCCOC)c(OCCOC)cc23)c1 [erlotinib] (first compound 0.004 µM, partner dose 0.8 µM) | 91.9 | 89.7 | 83.6 | 95.6 | 78 | 87.5 | 87.1 | 100
Cc1cc(Nc2cc(N3CCN(C)CC3)nc(/C=C/c3ccccc3)n2)n[nH]1 + CC(=O)c1c(C)c2cnc(Nc3ccc(N4CCNCC4)cn3)nc2n(C2CCCC2)c1=O [palbociclib] (first compound 0.04 µM, partner dose 0.04 µM) | 76.3 | 80.3 | 78.6 | 80 | 87.7 | 83.8 | 77.7 | 86.9
Cc1cn(-c2cc(NC(=O)c3ccc(C)c(Nc4nccc(-c5cccnc5)n4)c3)cc(C(F)(F)F)c2)cn1 [nilotinib] + Cn1cnc2c(F)c(Nc3ccc(Br)cc3Cl)c(C(=O)NOCCO)cc21 [selumetinib] (first compound 0.2 µM, partner dose 0.015 µM) | 120 | 98.6 | 104 | 75 | 88.9 | 85.4 | 101 | 95.8
Cc1cn(-c2cc(NC(=O)c3ccc(C)c(Nc4nccc(-c5cccnc5)n4)c3)cc(C(F)(F)F)c2)cn1 [nilotinib] + C[C@@H](Oc1cc(-c2cnn(C3CCNCC3)c2)cnc1N)c1c(Cl)ccc(F)c1Cl [Crizotinib] (first compound 0.2 µM, partner dose 0.2 µM) | 93.5 | 111 | 118 | 106 | 92 | 0.456 | 111 | 108
CC(C)C[C@H](NC(=O)[C@H](Cc1ccccc1)NC(=O)c1cnccn1)B(O)O [Bortezomib] + C[C@]1(c2nc3c(C(N)=O)cccc3[nH]2)CCCN1 [Veliparib] (first compound 0.001 µM, partner dose 1.4 µM) | 86.9 | 86.1 | 86.8 | 79.4 | 108 | 93.2 | 81.6 | 67.8
Cc1cc(Nc2cc(N3CCN(C)CC3)nc(/C=C/c3ccccc3)n2)n[nH]1 + CCCS(=O)(=O)Nc1ccc(F)c(C(=O)c2c[nH]c3ncc(Cl)cc23)c1F [PLX4720] (first compound 0.04 µM, partner dose 0.08 µM) | 82.5 | 83 | 110 | 73.6 | 77.5 | 103 | 91.5 | 63.4
Cc1cc(Nc2cc(N3CCN(C)CC3)nc(/C=C/c3ccccc3)n2)n[nH]1 + CS(=O)(=O)CCNCc1ccc(-c2ccc3ncnc(Nc4ccc(OCc5cccc(F)c5)c(Cl)c4)c3c2)o1 [lapatinib] (first compound 0.04 µM, partner dose 0.8 µM) | 89.7 | 86 | 70.1 | 104 | 79.4 | 91.7 | 102 | 93.8
Cc1cc(Nc2cc(N3CCN(C)CC3)nc(/C=C/c3ccccc3)n2)n[nH]1 + Cn1nnc2c(C(N)=O)ncn2c1=O [temozolomide] (first compound 0.04 µM, partner dose 2 µM) | 97.1 | 85.7 | 98.5 | 87.7 | 73.8 | 102 | 88.3 | 85
COc1ccc(C2=N[C@@H](c3ccc(Cl)cc3)[C@@H](c3ccc(Cl)cc3)N2C(=O)N2CCNC(=O)C2)c(OC(C)C)c1 [Nutlin-3] + O=C(O)c1ccc2c(c1)nc(Nc1cccc(Cl)c1)c1ccncc12 [CX4945] (first compound 0.1 µM, partner dose 0.4 µM) | 99.1 | 87.2 | 80.3 | 95.4 | 84.1 | 95.5 | 105 | 88.4
Cc1cc(Nc2cc(N3CCN(C)CC3)nc(/C=C/c3ccccc3)n2)n[nH]1 + CNC(=O)c1cc(Oc2ccc(NC(=O)Nc3ccc(Cl)c(C(F)(F)F)c3)cc2)ccn1 [sorafenib] (first compound 0.04 µM, partner dose 0.4 µM) | 83.1 | 86.9 | 107 | 99.3 | 101 | 103 | 117 | 96.3
Cc1cn(-c2cc(NC(=O)c3ccc(C)c(Nc4nccc(-c5cccnc5)n4)c3)cc(C(F)(F)F)c2)cn1 [nilotinib] + COc1ccc(Cl)c(Nc2nc3ccccc3nc2NS(=O)(=O)c2cccc(NC(=O)C(C)(C)N)c2)c1 [XL147] (first compound 0.2 µM, partner dose 0.8 µM) | 92.5 | 103 | 105 | 91.3 | 104 | 93.6 | 80.8 | 97.9
COc1ccc(C2=N[C@@H](c3ccc(Cl)cc3)[C@@H](c3ccc(Cl)cc3)N2C(=O)N2CCNC(=O)C2)c(OC(C)C)c1 [Nutlin-3] + Nc1nc(F)nc2c1ncn2[C@@H]1O[C@H](CO)[C@@H](O)[C@@H]1O [fludarabine] (first compound 0.1 µM, partner dose 0.2 µM) | 97.1 | 46.5 | 106 | 88.2 | 84.1 | 11.2 | 25.6 | 62
COc1ccc(C2=N[C@@H](c3ccc(Cl)cc3)[C@@H](c3ccc(Cl)cc3)N2C(=O)N2CCNC(=O)C2)c(OC(C)C)c1 [Nutlin-3] + C[C@]1(O)C[C@@H](c2nc(-c3ccc4ccc(-c5ccccc5)nc4c3)c3c(N)nccn32)C1 [OSI906] (first compound 0.1 µM, partner dose 0.4 µM) | 90.7 | 95.5 | 92.3 | 105 | 80.6 | 87.2 | 101 | 80.7
COc1ccc(C2=N[C@@H](c3ccc(Cl)cc3)[C@@H](c3ccc(Cl)cc3)N2C(=O)N2CCNC(=O)C2)c(OC(C)C)c1 [Nutlin-3] + C[C@@H](Oc1cc(-c2cnn(C3CCNCC3)c2)cnc1N)c1c(Cl)ccc(F)c1Cl [Crizotinib] (first compound 0.1 µM, partner dose 0.2 µM) | 93.6 | 95 | 98.9 | 94.8 | 80 | 114 | 112 | 68.3
Cn1c(=O)n(-c2ccc(C(C)(C)C#N)cc2)c2c3cc(-c4cnc5ccccc5c4)ccc3ncc21 + Nc1ccn([C@@H]2O[C@H](CO)[C@@H](O)C2(F)F)c(=O)n1 [gemcitabine] (first compound 0.004 µM, partner dose 0.0004 µM) | 95.9 | 80.2 | 84.8 | 87.7 | 81.2 | 93.4 | 80.9 | 80.1
Cc1cc(Nc2cc(N3CCN(C)CC3)nc(/C=C/c3ccccc3)n2)n[nH]1 + Cn1c(=O)n(-c2ccc(C(C)(C)C#N)cc2)c2c3cc(-c4cnc5ccccc5c4)ccc3ncc21 [NVP-BEZ235] (first compound 0.04 µM, partner dose 0.004 µM) | 102 | 81.2 | 88.5 | 78.8 | 75.6 | 89.2 | 121 | 92.4

Reference: the supplement of paper PMC4604168 (melanoma cell lines)
